# In PubChem BioAssay AID652106 (National Center for Advancing Translational Sciences (NCATS), 2013):
# The whole screen tested about 370,000 compounds, of which about 500 (0.14%) were called active. Inconclusive results, whose numbers are uncertain, are shown with a selection of clear calls. The call rests on the fitted dose curve; in most records, active means well fitted activation curve with a large enough effect; inconclusive means small, poorly fitted or top-dose-only effect; inactive means no such curve, though single readings can be large or run the other way. Potencies of inconclusive entries are left out as doubtful fits.
# Assay: qHTS of alpha-syn Inhibitors; further: nearly all actives have a fitted effect of over 65% in size; on growth rescue (activation): % of control where 0% means no effect
# Details: Yeast expressing alpha-synuclein, BacTiter-Glo, 24 h; Potency: growth rescue unless noted; growth rescue (activation): at 46.1 µM (top of the series) unless noted
# Summary of the method: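 Readout is rescue of growth in alpha-synuclein-expressing yeast, so inhibitors of toxicity appear as activators. Growth after 24 hr at 30 deg C in galactose medium is quantified by luminescence.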
# Potency means the concentration at half of the fitted maximal effect; tags describe the fitted curve by direction and shape.
SMILES,growth rescue (activation),Potency
COc1ccccc1Cc1c(-c2ccccc2)nc2ccc(Br)cn12,inactive: -1.07%,
O=C(CN(C(=O)Cn1nnc(-c2ccc(F)cc2)n1)c1ccc(F)c(Cl)c1)NCC1CCCO1 (centres undefined),,"inconclusive [activator, partial curve]"
COc1ccccc1-n1c(SCC(=O)Nc2cccc3ccccc23)nc(O)cc1=O,,"inconclusive [activator, single point]"
COc1ccc(Cc2c(-c3ccco3)nc3ccc(Br)cn23)c(C)c1,,"inconclusive [activator, partial curve]"
Cc1cccc(C)c1NC(=O)C(c1ccccc1)N1CCN(C)CC1 (centres undefined),,"inconclusive [activator, single point]"
CCCCNC(=O)c1nc(C2CCN(S(=O)(=O)c3ccc(C(F)(F)F)cc3)CC2)oc1-c1ccccc1,,"inconclusive [activator, single point]"
Cc1ccc(Cn2cc(CN3CC(N4CCN(CCN(C)C)CC4)CS3(=O)=O)nn2)cc1 (centres undefined),,"inconclusive [activator, single point]"
Cc1ccc(C)c(S(=O)(=O)N2CCN(C(=O)c3ccc(C)s3)CC2)c1,,"inconclusive [activator, single point]"
C=CCc1cccc(/C=N/NC(=O)CNc2cccc3ccccc23)c1O,,"inconclusive [activator, single point]"
O=C(c1csc2c1CCCCC2)N1CCN(c2ncccn2)CC1,,"inconclusive [activator, partial curve]"
COc1ccc(C(C)(O)c2nc(-c3cccc(O)c3)cs2)cc1 (centres undefined),,"inconclusive [activator, single point]"
Cc1ccc(OCc2ccc([N+](=O)[O-])cc2)c([N+](=O)[O-])n1,inactive: 1.74%,
Nc1nc2ncn(COCCO)c2c(=O)[nH]1,,"inconclusive [activator, single point]"
Cc1nc(-c2ccc(C)c(N3CCN(C(=O)Nc4cccc(Cl)c4C)CC3)c2)no1,,"inconclusive [activator, single point]"
O=C(C[n+]1ccccc1)N/N=C/c1ccccc1C(F)(F)F,,"inconclusive [activator, single point]"
O=S(=O)(NCc1ccc(F)cc1)c1cc(Br)ccc1Br,,"inconclusive [activator, single point]"
CC(C)Oc1ccc(S(=O)(=O)N2CCOCC2)cc1NC(=O)Cc1ccsc1,inactive: -2.39%,
CCC(C(=O)Nc1cc(F)ccc1F)n1nc(C)c2c(C)n(-c3ccc(C)cc3)nc2c1=O (centres undefined),inactive: 1.92%,
COc1ccccc1-c1sc2cc3c(cc2c1C#CC1(O)CCCCC1)OCO3,,"inconclusive [activator, single point]"
Cn1nccc1-c1coc2c(C(=O)N3CCOCC3)cccc12,,"inconclusive [activator, single point]"
COc1cc(OC)c2c(=O)cc(-c3cccnc3)oc2c1,,"inconclusive [activator, single point]"
O=[N+]([O-])c1ccc(NC(=S)N2CCc3ccccc3C2)cc1,,"inconclusive [activator, single point]"
NC(=O)COC(=O)c1oc2ccccc2c1CSc1ccc(Cl)cc1,,"inconclusive [activator, single point]"

SMILES,growth rescue (activation),Potency
O=C(CC(=O)c1ccccn1)c1ccccc1,,active: 12.6 µM
COc1ccccc1CNC(=O)CCCN1C(=O)COc2ccc(C)cc21,,"inconclusive [activator, single point]"
Cc1ccc2c(c1)c(C)c(C)n2CC(O)Cn1nc(C)cc1C (centres undefined),inactive: 12.2%,
CCN1C(=O)[C@H]2[C@@H](c3ccc(-c4ccc(OC)cc4)c(OC)c3)N[C@@](Cc3ccccc3)(C(=O)OC)[C@H]2C1=O,inactive: 5.57%,
COc1ccc(-c2c(C(=O)c3ccccc3)[nH]c(N)c2C(N)=O)cc1OC,,"inconclusive [activator, single point]"
O=[N+]([O-])c1ccc(Cl)cc1P(=O)(O)c1cc(Cl)ccc1[N+](=O)[O-],,"inconclusive [activator, single point]"
CCNC(=O)/C(C#N)=C/c1c(N2CCOCC2)nc2ccccn2c1=O,inactive: -1.25%,
Cc1cccc(C)c1N1C(=O)[C@@H]2C(c3ccccc3Cl)=NO[C@@H]2C1=O,,"inconclusive [activator, single point]"
O=C1CSC(c2cccnc2)N1Cc1ccc(Cl)c(Cl)c1 (centres undefined),,"inconclusive [activator, partial curve]"
O=S(=O)(c1ccc(Cl)cc1)N1CCCC1c1nc(-c2ccc(Cl)cc2)no1 (centres undefined),inactive: 18.8%,
Cc1ccc(-c2nc3c(=O)n(C)c4ccccc4c3o2)cc1,,"inconclusive [activator, single point]"
CCOc1ccccc1OCCC(=O)Nc1ccc(F)c(Cl)c1,inactive: 1.85%,
C=CCOC(=O)C1=C[C@@H](c2csc3ccccc23)C[C@@H](OCc2ccc(CO)cc2)O1,,"inconclusive [activator, single point]"
C=CCSc1nc2ccccc2n1C(=O)/C=C/c1cc(OC)c(OC)c(OC)c1,inactive: 12.1%,
O=C1CC(c2ccccc2)Oc2ccc(Cl)cc21 (centres undefined),,"inconclusive [activator, single point]"
Cc1ccc(C2=CC(=O)C[C@H](c3ccc(F)cc3)C2)cc1,inactive: 14.4%,
Cc1nc(C)c(-c2ccc(SCC(=O)Nc3ccccc3)nn2)s1,inactive: 1.21%,
CCN(CCNC(=O)C1CCC(=O)N1Cc1ccc(C)cc1)c1ccccc1 (centres undefined),,"inconclusive [activator, single point]"
O=[N+]([O-])c1ccc(Cl)c2cccnc12,inactive: 1.2%,
CCc1nc(SCC(=O)Nc2ccccc2Cl)n[nH]1,,"inconclusive [activator, single point]"
Cc1ccccc1OCC(=O)NNC(=S)NC(=O)c1ccco1,,"inconclusive [activator, partial curve]"
CCOC(=O)c1cc(C#N)c(SCC(=O)OC)[nH]c1=O,,"inconclusive [activator, single point]"
O=C(NC(=S)N(CCc1ccccc1)CCc1ccccc1)c1ccco1,,"inconclusive [activator, single point]"

SMILES,growth rescue (activation),Potency
Oc1ccc2ccccc2c1N=Nc1ccccc1F,,"inconclusive [activator, single point]"
Cc1ccccc1C1(O)c2ccccc2-c2ccccc21,,"inconclusive [activator, single point]"
O=C(Nc1cccc(C(=O)Nc2ccc(Br)cc2)c1)c1ccccc1,inactive: -6.56%,
CCC(C)(C)n1nnnc1C(c1cccnc1)N1CCC(Cc2ccccc2)CC1 (centres undefined),,"inconclusive [activator, full curve]"
COc1ccc(NC(=O)CSc2nnnn2C2CCCC2)cc1S(=O)(=O)N1CCOCC1,,"inconclusive [activator, single point]"
O=S(=O)(NCc1ccco1)c1cnc(Cl)c(Br)c1,inconclusive: -51.8% [activator],
Cc1cccc2cc(CN(Cc3nnnn3Cc3ccco3)C3CCCC3)c3nnnn3c12,,"inconclusive [activator, single point]"
CSc1cccc(NC(=O)CSc2nc3ccccc3o2)c1,,"inconclusive [activator, single point]"
COc1ccc2sc(-c3ccccc3OC)c(C#CCCO)c2c1,inactive: -11.8%,
O=C(O)c1cc(S(=O)(=O)N2CCCC2)ccc1Br,,"inconclusive [activator, single point]"
C=C(C)C1CC=C(CN2CCN(Cc3ccccc3)CC2)CC1 (centres undefined),,"inconclusive [activator, single point]"
Cc1cc(C)c(C#N)c(SCc2nc3ccccc3c(=O)[nH]2)n1,,"inconclusive [activator, single point]"
O=C(NCc1ccccc1Cl)c1csc(COCCO)n1,,"inconclusive [activator, single point]"
Oc1c(Br)cc(Br)cc1/C=N/Nc1ccc(Cl)nn1,,"inconclusive [activator, full curve]"
O=c1[nH]c2ccccc2c2ccccc12,,"inconclusive [activator, single point]"
COc1ccc(S(=O)(=O)n2oc(=O)cc2-c2ccccc2)cc1OC,,"inconclusive [activator, partial curve]"
COc1ccc(C2Nc3ccc(NC(=O)CO)cc3C(=O)N2Cc2cccc(Cl)c2)cc1COc1ccc(NC(C)=O)cc1 (centres undefined),inactive: 0.0911%,
Cc1ccc(OCC(O)CNC2CCCC2)cc1C (centres undefined),,"inconclusive [activator, single point]"
Clc1ccc(-n2nnnc2-c2ccno2)cc1,inactive: 1.13%,
N#Cc1ccc(-c2nc3ccccc3c(=O)n2O)cc1,,"inconclusive [activator, partial curve]"
COC(=O)[C@@H]1[C@@H](C)N(Cc2ccccc2)C(=O)N[C@H]1c1cccc(C(F)(F)F)c1,,"inconclusive [activator, single point]"
CCN(CC)C(=O)[C@H]1C[C@H](CC(=O)NCCCn2ccnc2)C(=O)N2CCc3c([nH]c4cc(-c5ccco5)ccc34)[C@]12C,,"inconclusive [activator, single point]"
COc1ccc(OC)c(CNc2ccc(F)c(Cl)c2)c1,,"inconclusive [activator, single point]"
